Assay results reported in the supplement of paper PMC3334620.
The full ranking holds about 33,000 sequences; the median of “E-score (-0.5 to 0.5)” is about -0.012, and the highest 2% start at about 0.27. The list shows a part of the results.

Molecular target: T1, Vhr1 (UniProt P40522)
T1 sequence: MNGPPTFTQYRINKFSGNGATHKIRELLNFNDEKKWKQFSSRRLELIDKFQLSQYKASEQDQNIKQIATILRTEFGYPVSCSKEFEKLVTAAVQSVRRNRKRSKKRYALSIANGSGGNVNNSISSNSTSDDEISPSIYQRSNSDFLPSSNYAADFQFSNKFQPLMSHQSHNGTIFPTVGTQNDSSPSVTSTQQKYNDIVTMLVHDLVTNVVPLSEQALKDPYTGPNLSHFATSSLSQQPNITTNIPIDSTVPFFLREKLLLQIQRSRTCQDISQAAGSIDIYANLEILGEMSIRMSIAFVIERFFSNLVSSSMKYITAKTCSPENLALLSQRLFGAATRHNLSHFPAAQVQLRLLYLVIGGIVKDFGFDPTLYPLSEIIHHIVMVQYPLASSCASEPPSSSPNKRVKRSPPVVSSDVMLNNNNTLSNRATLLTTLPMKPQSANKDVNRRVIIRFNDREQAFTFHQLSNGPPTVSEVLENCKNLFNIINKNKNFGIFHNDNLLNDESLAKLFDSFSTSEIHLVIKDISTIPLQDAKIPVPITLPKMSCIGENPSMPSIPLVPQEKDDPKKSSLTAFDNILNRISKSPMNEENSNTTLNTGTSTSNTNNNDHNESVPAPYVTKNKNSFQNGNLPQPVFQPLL
Assay: PBM E-score (8-mer binding enrichment) (E-score (-0.5 to 0.5)); higher = stronger / more preferred TF binding; most listed sequences are background and not binding sites
Settings: protein concentration: 200 nM; construct: GST-full length
Summary of the method: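 Full-length yeast transcription factors or their DNA-binding domains, GST-tagged and expressed with PURExpress, were applied at about 100-200 nM to universal all-10-mer Agilent arrays. These arrays had been made double-stranded by primer extension on fresh or once-stripped slides. Detection used fluorescent anti-GST, normalisation used masliner, and E-scores for ungapped eight-base words pooled with reverse complements came from the Universal PBM Analysis Suite.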

| Sequence | PBM E-score |
| --- | --- |
| ACCGGCTC | 0.0386 |
| ACTCTCGG | 0.0854 |
| TCCGAAAA | -0.138 |
| GAATCGGC | 0.122 |
| CAAAGACC | -0.122 |
| CACCCATA | 0.24 |
| GATGGACA | -0.00521 |
| CCAGGTTA | -0.0596 |
| GTTCAAAA | -0.144 |
| CGATACTA | 0.0919 |
| AGCTTCGG | -0.00502 |
| ATGATTGC | 0.345 |
| CACTATCG | 0.135 |
| TGATGGCA | -0.0903 |
| CTCCGCAA | -0.202 |
| AGAAGATA | -0.193 |
| CGTTTATA | 0.0653 |
| CCATTAAA | 0.0108 |
| CACTGGCC | -0.00647 |
| CCTCGAGG | 0.156 |
| CTTCCGGC | -0.018 |
| GATAAGCA | -0.0689 |

| Sequence | PBM E-score |
| --- | --- |
| ACGCAGCA | -0.105 |
| AGGCACAC | 0.0154 |
| CATCTGAG | 0.0945 |
| AGGGGTGC | -0.0271 |
| AGACGAGC | -0.271 |
| GCCTCCAA | -0.0917 |
| GCCGGAGA | -0.00869 |
| CTGCGCTA | -0.157 |
| CCATGACG | 0.0813 |
| ACCGCTTG | 0.0324 |
| CAACGGGA | 0.0707 |
| CGACATCC | -0.00659 |
| ACGTTCTA | -0.0882 |
| AAGGCAAA | -0.121 |
| AGATTTCC | -0.0412 |
| CTGGTCTA | -0.205 |
| GCCGACTA | 0.27 |
| AGTAGAAT | -0.0247 |
| TCGCGAAA | 0.0628 |
| TACGAGAA | -0.146 |
| CCGCATCG | 0.0419 |
| TGAAATAA | -0.158 |

| Sequence | PBM E-score |
| --- | --- |
| CTAAAATC | -0.189 |
| GCTTTTAA | -0.283 |
| AACAGGAG | -0.0391 |
| CGCGTGAC | 0.162 |
| GTGGTACA | 0.071 |
| ACTAATCT | 0.174 |
| CATCCGCC | 0.126 |
| AGGCTGGA | -0.0974 |
| ACACGATC | 0.171 |
| CCGTCATC | -0.0774 |
| ATGATTCA | 0.443 |
| AGATTAGA | -0.213 |
| GAGCTGCA | -0.089 |
| AAGTTCGT | -0.204 |
| ATGACCTA | 0.0857 |
| CGCGCCCC | 0.0171 |
| GAATACCC | 0.00311 |
| CTTTATAC | -0.161 |
| CGCCAGAC | 0.123 |
| ACAAGTAA | -0.0815 |
| CAGACTCC | -0.0111 |
| CTTATAGA | 0.0141 |

| Sequence | PBM E-score |
| --- | --- |
| TAAGTCAA | -0.122 |
| GACAATCC | 0.0934 |
| AAGCAAGA | -0.0587 |
| ACCATTGA | -0.00061 |
| AATCAGTC | 0.232 |
| CAGACCGC | 0.194 |
| ACTATCAG | 0.156 |
| CACATTCA | 0.0456 |
| CCAAAAAC | 0.0817 |
| AGATCTCG | 0.0372 |
| CAATTGGA | 0.0632 |
| ATGGTTTC | 0.218 |
| ACCGGGCG | 0.0842 |
| ATGCTAGC | -0.0011 |
| AGTACTGA | 0.188 |
| CGAATAAG | 0.0236 |
| CAACACGA | 0.205 |
| CAAGTCCA | -0.222 |
| AACGCAAG | -0.179 |
| CGGCCCGA | 0.166 |
